Data on 111 compounds can be found in PubChem BioAssay AID488969 (Vanderbilt High Throughput Screening Facility, 2010).

Whole data set: some 110,000 compounds, median “z-score” near -0.1, cut for the highest 2% near 2. Some of the results follow. Activity calls are given as the source filed them.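 How the source made its calls: active means z-score in the third read window above 3 or below -3; inactive means the rest.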

The experiment deals with Metabotropic glutamate receptor 8 (Rattus norvegicus) (UniProt P70579). Description: mGluR8 Gi/Go-coupled signaling modulation – cell-based, rat, thallium flux, HTS, primary screen (AID 488969). The following applies: HEK293 rat mGluR8, GIRK (G protein-gated inwardly rectifying potassium channel) thallium flux, FluoZin2; at 10 µM; stronger effect = higher value; submaximal glutamate (EC20) added with thallium.
Sequence of UniProt P70579 (P70579 whole entry, looked up): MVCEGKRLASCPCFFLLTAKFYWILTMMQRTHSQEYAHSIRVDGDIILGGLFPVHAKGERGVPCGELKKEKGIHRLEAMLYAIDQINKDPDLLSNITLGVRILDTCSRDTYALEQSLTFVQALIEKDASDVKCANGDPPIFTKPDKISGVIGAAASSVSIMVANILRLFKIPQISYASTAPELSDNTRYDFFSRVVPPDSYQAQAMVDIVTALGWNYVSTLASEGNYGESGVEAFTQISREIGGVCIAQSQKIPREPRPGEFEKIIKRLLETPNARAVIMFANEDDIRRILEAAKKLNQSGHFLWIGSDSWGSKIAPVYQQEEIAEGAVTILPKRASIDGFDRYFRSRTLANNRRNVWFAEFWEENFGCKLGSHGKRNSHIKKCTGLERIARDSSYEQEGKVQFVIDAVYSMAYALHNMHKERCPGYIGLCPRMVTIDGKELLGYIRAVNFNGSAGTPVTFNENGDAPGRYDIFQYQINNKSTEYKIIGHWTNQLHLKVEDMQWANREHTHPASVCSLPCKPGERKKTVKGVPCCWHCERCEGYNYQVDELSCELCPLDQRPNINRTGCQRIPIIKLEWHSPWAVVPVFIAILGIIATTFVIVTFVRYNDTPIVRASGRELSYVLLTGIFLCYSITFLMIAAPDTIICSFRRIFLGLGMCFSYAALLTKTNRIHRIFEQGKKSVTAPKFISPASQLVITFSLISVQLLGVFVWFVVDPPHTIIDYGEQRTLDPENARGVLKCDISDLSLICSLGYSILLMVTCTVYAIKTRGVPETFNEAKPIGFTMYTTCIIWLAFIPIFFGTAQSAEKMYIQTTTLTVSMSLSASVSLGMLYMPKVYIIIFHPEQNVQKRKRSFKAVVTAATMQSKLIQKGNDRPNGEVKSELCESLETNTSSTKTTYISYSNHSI
In turn, `O=C(NCc1ccco1)C1CCC(N2C(=O)c3ccccc3C2=O)CC1` (stereo unspecified) showed a z-score of -0.0663.

`COc1ccc2nc(C)cc(SCC(=O)N/N=C/c3ccccc3)c2c1`: the z-score was determined as 0.834.

In turn, `Cc1ccc(-c2nnc3sc(CCc4ccccc4)nn23)cc1` had a z-score of -1.98.

Consider `O=C(c1ccccc1)N1CCC(=O)N1c1ccccc1`, for which the z-score was -0.252.

In the case of `Cc1ccc(CS(=O)(=O)CCC(=O)NCCCN2CCCC2=O)cc1`, the z-score was found to be 0.332.

In the case of `Cc1sc(NC(=O)CN2CCOCC2)nc1-c1ccc2c(c1)CCN2S(=O)(=O)c1ccccc1`, the z-score was -0.434.

Turning to `O=C(Nc1cccc(Br)c1)c1ccc(Cl)c(S(=O)(=O)N2CCOCC2)c1`, the z-score came out at 0.485.

Consider `S=C(NCc1cccnc1)Nc1ccc(Cl)cc1`, for which the z-score was -0.0765.

For `COc1ccc(CCNC2=C(Cl)C(=O)N(CCc3ccc(OC)c(OC)c3)C2=O)cc1OC`, the z-score was determined as 0.0704.

Take `COc1ccc(CCNC2=NCC(C)S2)cc1` (stereo unspecified): the z-score was determined as 0.0523.

`COc1ccc(C(NC(=O)CC(C)C)NC(=O)CC(C)C)cc1OC` yielded a z-score of 0.0629.

Regarding `COC(=O)Cn1cnc2sc(C)c(S(=O)(=O)N3CCN(c4ccccc4OC)CC3)c2c1=O`, the z-score was -0.493.

In turn, `Cc1c(-c2ccccc2)nc2ccccc2c1C(=O)NCc1cccs1` came in with a z-score of -0.631.

`CCOC(=O)c1sc(NC(=O)Nc2ccccc2)cc1C`: the z-score was -0.416.

`COc1ccc(/C=N/N2CCN(c3ccccc3OC)CC2)cc1OC` registered a z-score of -0.122.

On to `COc1ccc(/C=C/C(=O)c2ccc3ccccc3c2O)cc1CN1CCOCC1`, for which the z-score was -0.236.

For the compound `Cc1nc2cc(NC(=O)COc3ccc(C#N)cc3)ccc2n1-c1ccccc1`, the z-score was 0.0424.

`CC1CCC2(CC1)NC(=O)N(CC(=O)Nc1nc(-c3ccc(F)cc3)cs1)C2=O` (stereo unspecified): the z-score was -0.163.

`Cc1cccc(NC(NC(=O)c2cccnc2)C(Cl)(Cl)Cl)c1` (stereo unspecified) showed a z-score of -0.197.

`CCc1c(C)c(C#N)c2nc3ccccc3n2c1NCC1CCCO1` (stereo unspecified) showed a z-score of -0.736.

`CCOC(=O)N1CCC(c2cc(=O)n3[nH]ccc3n2)CC1` yielded a z-score of -0.185.

In the case of `CC1=C(C(=O)OCC(C)C)C(c2ccc(F)cc2)NC(=O)N1` (stereo unspecified), the z-score was -0.189.

As to `Cc1ccc(S(=O)(=O)N/N=C/C(C)(C)CO)cc1`, the z-score is 0.00385.

On to `O=C(Nc1nnc(Cc2ccc(Cl)cc2)s1)c1ccco1`, for which the z-score is -0.101.

As for `CC(C)(C)C(=O)NC(=S)NCCc1ccccc1`, the z-score is -0.0291.

Consider `S=c1[nH]ncc2ccccc12`, for which the z-score was 1.12.

`Cn1c(Cc2cccs2)n[nH]c1=S` showed a z-score of -0.0633.

Take `CSc1ccc(-c2nc(CSCC(=O)N3CCOCC3)c(C)o2)cc1`: the z-score is -0.386.

Regarding `Cn1c(=O)c2c(nc(Br)n2CCCc2ccccc2)n(C)c1=O`, the z-score is -0.207.

`COc1cc(NC(=S)N2CCN(c3ccccn3)CC2)cc(OC)c1` yielded a z-score of -0.119.

For `CCCCN1C(=O)C(NC(=O)CC(C)C)(C(F)(F)F)C2=C1CC(C)(C)CC2=O` (stereo unspecified), the z-score was 0.318.

`Cc1ccccc1-n1c(SCC(=O)N/N=C/C=C/c2ccccc2[N+](=O)[O-])nc2ccccc2c1=O`: the z-score was -2.08.

Compound `c1ccc(Nc2nc(-c3ccncc3)cs2)cc1` came in with a z-score of -0.305.

For `Cc1nc2ccc(-c3nc4ccccc4o3)cc2[nH]1`, the z-score was determined as 0.886.

As for `CC(=O)NCc1ccc(C(=O)CSc2nnc(-c3ccncc3)n2Cc2ccccc2)o1`, the z-score is -0.582.

Compound `CCC1(CC)C(=O)N(C)C(=O)NC1=NCc1ccccc1` returned a z-score of 0.146.

Turning to `Cc1cc(C)c2nc(N3CCC(C(=O)N4CCCC4)CC3)sc2c1`, the z-score came out at 0.802.

`Cc1ccc(C(=O)Nc2ccc(S(=O)(=O)N3CCc4ccccc4C3)cc2)o1` registered a z-score of -0.223.

`O=C(CSc1nc2ccccc2s1)Nc1ccc2c(c1)OCO2` registered a z-score of 0.271.

As for `COC(=O)c1ccc(Oc2nc(N(C)C)nc(N3CCOCC3)n2)cc1`, the z-score is -0.191.

The compound `O=C(CN1CCN(c2nc(-c3ccc(F)cc3)cs2)CC1)Nc1ccc2c(c1)OCO2` showed a z-score of -0.548.

`OCCn1c(SCCOc2ccccc2F)nc2ccccc21` displayed a z-score of -0.0383.

The compound `CCN1CCN(S(=O)(=O)c2cc(OCC(=O)NC3CCCCC3)c(C)cc2Cl)CC1` registered a z-score of -0.107.

Take `CCOc1ccccc1NC(=S)NCc1ccco1`: the z-score is -0.353.

In turn, `COc1cc(OC)cc(-c2nnc(SCC(=O)N(Cc3ccccc3)C(C)(C)C)o2)c1` had a z-score of -0.513.

The compound `Cn1c(=O)c2c(SCC(=O)N3CCOCC3)nc(CC(C)(C)C)nc2n(C)c1=O` yielded a z-score of 0.012.

On to `COc1ccc(CNC(=O)C23CN(Cc4ccccc4)CC2C(c2ccc([N+](=O)[O-])cc2)=NO3)cc1` (stereo unspecified), for which the z-score is -0.186.

`CCOC(=S)N/C(=N\S(=O)(=O)c1ccc(C)cc1)c1ccccc1` showed a z-score of 1.01.

In turn, `Cc1ccc(N(NC(=O)C(C)(C)O)C(=O)c2ccccc2)cc1C` came in with a z-score of -0.118.

Take `COC(=O)c1cc(=O)n(Cc2ccc3c(c2)OCO3)c(=Nc2ccc(F)cc2)s1`: the z-score was 0.0157.

Take `FC(F)(F)c1cccc(NC(=S)NC(c2ccccc2)c2ccccc2)c1`: the z-score worked out at 0.0552.

`CCn1c(SCC(=O)NCc2ccco2)nnc1-c1c[nH]c2ccccc12` gave a z-score of -0.471.

Compound `O=c1[nH]ncc(N/N=C/c2ccccc2)c1Cl` showed a z-score of 0.241.

In turn, `COCCNC(=S)NNC(=O)c1ccco1` gave a z-score of 0.195.

`COc1cc(NC(=O)CCc2c(C)nc3nc(C)nn3c2C)cc(OC)c1`: the z-score is -0.431.

Compound `CCN(CC(=O)N1CCc2ccccc2C1)S(=O)(=O)c1ccc2ccccc2c1` had a z-score of -0.35.

`O=C(N/N=C1/CCSC1)c1cccc([N+](=O)[O-])c1`: the z-score is -0.137.

Regarding `COC(=O)CSc1nnc(-c2ccc(S(=O)(=O)NCc3ccccc3Cl)cc2)o1`, the z-score is -0.123.

The compound `Cn1c(=O)[nH]c(=O)c2c1nc(N1CCN(Cc3ccccc3)CC1)n2CCSc1ncccn1` came in with a z-score of 0.135.

With `c1cc2ccc3ccc(CN4CCOCC4)c4ccc(c1)c2c34`, the z-score is 0.117.

`Cc1ccc(Cn2ccc(NC(=O)c3cc(C(C)C)on3)n2)cc1` yielded a z-score of -0.206.

`Clc1ccc(CNc2nnnn2-c2ccccc2)c(Cl)c1`: the z-score was -0.0354.

For the compound `COc1ccc(OCCCC(=O)Nc2cccc([N+](=O)[O-])c2C)cc1`, the z-score was 1.52.

`O=C(CSc1nc(-c2ccncc2)nn1CC(=O)N1CCCCC1)NC1CCCC1` had a z-score of 0.489.

Compound `N/C(=N\OC(=O)c1ccc(F)cc1)c1nonc1N` returned a z-score of 0.0542.

Take `COc1ccc(-n2cnnc2SCC(=O)NC2CCCc3ccccc32)cc1` (stereo unspecified): the z-score was -0.364.

With `Cc1cc(C)nc(NN2C(=O)/C(=C/c3ccc(O)cc3)SC2=S)n1`, the z-score is -0.387.

In turn, `Cc1cccc2cc(COC(=O)c3ccccn3)c(=O)[nH]c12` displayed a z-score of -0.024.

`COc1ccc(-c2csc(=Nc3c(C)n(C)n(-c4ccccc4)c3=O)n2C(C)(C)C)cc1` gave a z-score of 0.0597.

Consider `CCOc1ccc(N=Cc2c(O)c3ccccc3oc2=O)cc1`, for which the z-score was found to be 0.0869.

Take `CC(=O)c1cccc(NS(=O)(=O)c2c(C)noc2C)c1`: the z-score turned out to be 0.0121.

As to `Cc1cc(NC(=O)CSc2nc(-c3ccccc3)c(C#N)c(=O)[nH]2)no1`, the z-score is -0.79.

Compound `Cn1c(NC(=O)c2cccc(Cn3cc(Cl)cn3)c2)nc2ccccc21` yielded a z-score of -0.464.

`COc1ccc(C(=O)C2CCCCC2=O)cc1` (stereo unspecified) registered a z-score of 0.0727.

Compound `Cc1cc(N)n2ncc(-c3cccc(Br)c3)c2n1` yielded a z-score of 0.0531.

Compound `CCCOc1ccc(S(=O)(=O)NCCN2CCOCC2)c2ccccc12` registered a z-score of -0.108.

In the case of `COc1ccc(C)cc1NC(=O)CN1C(=O)c2cccc3cccc1c23`, the z-score is -0.0263.

Compound `CCOc1ccc(S(=O)(=O)Nc2cc(OC)ccc2OC)cc1` yielded a z-score of -0.0111.

Turning to `COc1cc(OC)cc(C(=O)NN2CCCCC2)c1`, the z-score is -0.128.

In turn, `O=C(CN1CCN(c2cccc(Cl)c2)CC1)Nc1ccc([N+](=O)[O-])cc1C(=O)Nc1ccccc1F` registered a z-score of -0.0569.

On to `Cc1ccc(N=C2CCCCCN2C)c(C#N)c1`, for which the z-score amounted to 0.507.

Turning to `COC(=O)c1[nH]c2ccc(Cl)cc2c1NC(=O)Oc1ccccc1`, the z-score is -0.211.

`Cc1cc(C)c2c(n1)sc1c(O)cc(=O)[nH]c12` displayed a z-score of -1.2.

Compound `CCc1ccc(OCC(=O)N/N=C/c2cc([N+](=O)[O-])ccc2N2CCOCC2)cc1` came in with a z-score of 0.198.

As to `CC(C)c1ccccc1NC(=O)COc1ccc2c(=O)c(Oc3ccc4ccccc4c3)coc2c1`, the z-score is -0.285.

In the case of `CCCCCNC(=O)CCn1c(=O)oc2ccccc21`, the z-score is -0.371.

With `O=C(Nc1cccc2c1CCCC2)c1ccco1`, the z-score is 0.256.

`CC(C)(CNC(=O)C1CCCC1)CNC(=O)C1CCCC1` registered a z-score of 1.5.

Compound `O=C(COc1ccc(F)cc1Br)NCc1ccccn1` displayed a z-score of -0.474.

For the compound `O=c1c2cc(F)ccc2[nH]c(=S)n1CCCN1CCOCC1`, the z-score was active: 3.11.

Regarding `CCOC(=O)C1=C(O)C(=O)N(c2ccc(S(N)(=O)=O)cc2)C1c1ccc(OC)cc1` (stereo unspecified), the z-score is -0.258.

`Cc1cccc(NC(=O)CSc2ccc(-c3ccc4c(c3)OCO4)nn2)c1C`: the z-score was -0.129.

For `Cc1cccc(NC(=O)c2nc[nH]c2C(=O)Nc2ccccc2[N+](=O)[O-])c1`, the z-score was -0.274.

Turning to `CCOc1ccc(N2C(=O)/C(=C/c3cc(OC)c(OC)c(OC)c3)N(CC(=O)OC)C2=S)cc1`, the z-score was active: 14.1.

Take `Cc1cc(CN(C)C)c(O)c(C2(C)CCCCC2)c1`: the z-score worked out at 0.411.

In turn, `CCOC(=O)c1c2ccc(OCC(=O)N/N=C/c3ccc(Cl)cc3)cc2n2ccccc12` showed a z-score of -0.577.

With `O=C(NNS(=O)(=O)c1ccccc1)C(O)(c1ccccc1)c1ccccc1`, the z-score was -0.446.

With `Cc1ccc(NC(=O)C2CCN(S(C)(=O)=O)CC2)cc1`, the z-score is -0.133.

Turning to `Cc1ccc(C(CC(=O)O)C2CCOC(C)(C)C2)cc1` (stereo unspecified), the z-score is 0.72.

Regarding `O=C(Nc1ccccc1)Nc1nnc(SCc2ccc(Cl)cc2)s1`, the z-score was -0.2.

Compound `CCOC(=O)C(NCCc1ccccc1F)(NC(=O)CC)C(F)(F)F` (stereo unspecified) had a z-score of -0.0418.

For `Cc1ccc(S(=O)(=O)N2CCOCC2)cc1C(=O)Nc1ccccn1`, the z-score is -0.302.

The compound `O=C(Nc1ccc(F)cc1)C(c1ccccc1)N1CCN(S(=O)(=O)c2ccccc2)CC1` (stereo unspecified) registered a z-score of -0.768.

On to `COc1cccc(C2=CC(c3cccs3)n3nnnc3N2)c1` (stereo unspecified), for which the z-score is -0.738.

`CCCCC(=O)Nc1nc2ccc3nc(C)sc3c2s1` showed a z-score of -0.125.

`CSc1nnc(-c2cnccn2)n1C`: the z-score was 0.516.

The compound `Cc1c(S(=O)(=O)Nc2cc(Cl)ccc2Cl)c(=O)n(C)c(=O)n1C` had a z-score of -0.406.

As to `Cc1nc(SCc2c(F)cccc2Cl)c2c(=O)n(C)c(=O)n(C)c2n1`, the z-score is -0.142.

In turn, `N#C/C(=C/c1cn(-c2ccccc2)nc1-c1cccc(OCc2ccc(F)cc2)c1)C(=O)NCCCn1ccnc1` had a z-score of -0.142.

`O=C(CC1Sc2ccccc2NC1=O)c1ccc(Br)cc1` (stereo unspecified) returned a z-score of -0.787.

In the case of `CC(=O)/C=C1/SC(CC(=O)O)C(=O)N1c1ccccc1` (stereo unspecified), the z-score was -0.0454.
